The values below come from PubChem BioAssay (NCI).

Some compounds were tested as several samples or in several runs, with calls that do not always agree.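 For each line, cells grew in 96-well plates with the test compound present at a single concentration for 48 hours.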 Certain results were filed several times, with different values. Only these are listed. The calls were made as follows: active = growth percent below 10; inactive = the rest. The source may hold further records. This drug was run again and again over the years, at the concentration stated with the values; one value stands for one run. Additions like (4×) give the number of equal values in this list.

The assay deals with NCI-H460 lung. In words: NCI-60 one-dose screen, 48 h (100 = growth as untreated, 0 = no growth, -100 = all killed).

`COc1cccc2c1C(=O)c1c(O)c3c(c(O)c1C2=O)C[C@@](O)(C(=O)CO)C[C@@H]3OC1CC(N)C(O)C(C)O1` (stereo not given in full): the growth result (0.25 µM, runs of 2018) is “active: 9.56, 9.41, 8.16, 8.73, 9.15, 9.01, 8.92, 9.96, 9.71, 8.2, 9.45 (2×), 9.11, 8.59, 7.75, 6.59, 7.1, 7.7, 9.44, 8.87 (2×), 9.89, 8.75, 8.86, 8.17, 9.78, 8.46, 8.51, 7.6, 7.15, 8.01, 8.77, 9.06, 9.66, 9.53, 2.18, 5.23% and inactive: 10.6, 10.4 (3×), 13.6 (2×), 13.3, 11.5, 12.3, 10, 10.1, 10.7 (2×), 10.2, 14.5%”; the growth result (0.25 µM, runs of 2019) is reported as “active: 1.04, -0.984, -31.5, -17.3, -0.769, -0.401, 4.4, 2.39, -2.11, 0.93, -3.63, -0.997, 0.942, 6.54, 4, 2.9, 5.29, 2.16, 7.63, 3.99, 0.162, -0.38, 8.27, -1.36, 5.98, 6.12, 8.34, 5.02, 4.37, 3.91, 5.61, 6.07, 5.06, 3.25, 8.62, 8.88, 3.85, 4.81, 9.64, 3.09, 9.77, 8.44, 4.24, 5.74, 6.16, 2.6, 6.58, 6.13, 5.91%”; the growth result (0.25 µM, runs of 2020) was “active: 2.98, 7.9, 8.63, 8.78 (2×), 7.37, 7.29, 8.53, 9.53, 7.49, 7.13, 8.26, 7.71, 9.45% and inactive: 10.9, 14.6 (2×), 11.5, 10.8, 11.3, 10.6%”; the growth result (0.25 µM, runs of 2021) is “active: 7.46, 9.21, 8.77, 5.85, 7.24, 7.97, 7, 7.45, 8.13, 3.06, 9.28, 5.24, 5.93, 7.35, 8.45, 8.79, 5.28, 4.94, 4.4, 6.1, 3.54, 3.19, 5.52, 4.16, 2.86, 4.79, 5.43, 5.12, 7.11, 7.28, 2.85, 2.77, 6.59, 5.62, 2.78, 5.11, 7.58, 4.01, 4.63, 5.79, 2.26, 3.75, 5.8, -2.11, 9.4, 2.31, 3.27, 7.69% and inactive: 10.2%, 15.8%, 11.8%”; the growth entry (0.25 µM, runs of 2022) is “active: 2.45, 3.38, 2.96, 2.21, -33.3, 4.6, -13.9, 2.72, 2.22, 6 (2×), -12.3, 3.02, 8.11, 4.93, 7.69, 8.05, -1.29, 5.84, 4.29, 4.94, 6.88, 4.38% and inactive: 16.6, 15.2, 14.5, 19.4%”; the growth result (25 µM, runs of 1991) was “active: -16, 4.33, -49.8, -66.9, -42.2, -34 (2×), -11.8, -50, -19.5, -12.1, -26.3, -18.6, -44, -65.1, -56.9, -74.9%”. Moreover, the growth result was “active: -50.5, 2.48, -44.4, -31.1, -58.9, -46.1, -66.7, -51.5, -35.2, -6.95, -43.5 (2×), -57.3, -58.2, -45, 0.632, -38.9, 2.68, -58.7 (2×), -77.2, -50, -58.6, 0.0971, -56.1, -17.6, -55.2, -42.1, -35.7 (2×), -46.7, -61.1, -54.1, -55.1, -54.8, -40.9, -42.5, -100 (2×), -55.8, -35.6, -39.5, -26.1, -37.5, -38.7, -55.5 (2×), -78.2, -67, -62.4, 8, -51.6, -57.1, -65.3, -31.3, -73.3, -24.9, -53.6, -61, -68.3, -61.5, -54.5, -36.1, -29.1, -59.6, -98.4, -33.6, -63.9, -51.7, -92.5, -77.5, -51.1, -85.9, -81.1, -39, -66, -50.8, -26.9, -44, -79.6, -74.9, -53.5, -56.7, -83.7, -65, -70.3, -47.3, -27.1, -92, -60.1, -41.4, -59.7, -68.5, -69, -47.9, -46.4, -48.5, -53, -83.4, -78.1, -2.64, -42.2, -85, -31, -41.2, -91.6, -89.3, -8.87, -6.36, -24, -84.3%” (25 µM, runs of 1992); “active: -13, -33.4, -34.4, -59.6, 1.98, -12.8, -85.6, -53.6, -52, -20.7, -26.7, -44.4, -25.9, -83.3, -78.1, -81.5, -8.76, -52.8, -36.7, -60.4, -63.9, -39, -18.6, -8.63, -73.8, -18, -28.8, -38.9, -53.9, -3.67, -66.1, -77.5, 0.0324, -32.1, -37.4, -50, -86.3, -54.6, -29.8, -58.3, -82.4%” (25 µM, runs of 1993); “active: -9.26, -51.5, -43.8, -56.2, -84.5, -39.4, -47.2, -39.5, -58.9, 1.09, -57.6, -72.3, -37.6, -12.3, -46, 0.312, -76.2, -18.2, -53.6, -75.2, -34.9, -80.8, -63.6, -37.4, 0.858, -61.1, -21.3, 2.72, 8.21, -57.9, -27.3% and inactive: 84.8%” (25 µM, runs of 1994); “active: -34.3, -44.8, -63.4, -31.7, -69.4, -13.3, -0.644, -32.3, -23, 3.14, -5.74, -34.6, -9.93, -10.1, 1.4, -2.08, 0.582, 1.87, -12.2, -51, -100 (2×), -65, -52.3, -66.8, -88.9, -48.4, -59.4, -72.1, -64.7, -64, -38.4, -45.6, -68.2%” (25 µM, runs of 1995); “active: -36.9, -53.3, -48, -34.3, -17.8, -40, -77.4, 1.93, -20.9, -35.9, 1.32, -3.97, -48.2, -55.6, -36.7, -2.7, -23.4, 0.066, -43.9, -43.3, 1.91, -13.4, -42.9, -35.6, -51.6, -54.2, -42.1, -22.4, -52.3, -79.5, -52.5, -63.8, -61.2, -57.9, -64.2, -59, -23.1, -41.6, -67.8, -55.1, -56.4, -66.4, -72.2, -64.5, -62.6, -24.3, -64.4, -75.6% and inactive: 100%” (25 µM, runs of 1996); “active: -79.4, -84.9, -69.4, -91.2, -31.9, 3.87, -38.2, -18.2, -5.61, -21.5, -45.3, -8.86, 1.59, -60.1, -14.9, -28.1, -52.8, -27.3, 0.871, -32.4, -34.3, -25.4, -12.3, -56.2, -14.7, 2.25, 1, -34.6, -5.34, 0.969, 1.63, -20.4, -43.3, 1.33 (2×), -3.55, 1.11, 4.46%” (25 µM, runs of 1997). The growth entry is “active: -33, -42.5, 3.88, -23.9, 5.45, 9.12, -19.4, -39.2, -50.1, -19.2, -7.97, 1.81, -11.2, -33.6, 0.775, 5.44, -22.7, 9.84, -39.4, -30, -40.7, -24.1, -25.4%” (25 µM, runs of 1998); “active: -100 (3×), -55.2, 3.96, -80.9, 2.29, -8.37, -42.5, -42.6, -2.57, -34, -8.87, 2.52, -20.2, 3.16, 3.32, 2.84, 0, -3.91, 0.57, 1.34, 1.97, 4.04, 5.42, -8.31, -50.8, -15.9, -47.9, -11, 0.106, 3.43, -2.8, 0.276, -23.2, 1.27, -78, -81.1, 0.895, -79.8%” (25 µM, runs of 1999); “active: -100% (2×), -91.8%” (25 µM, runs of 2000).
